Measurements reported in a collection of fitness landscapes (doi:10.1126/science.1257360).
The other results are listed elsewhere or left out.

B1: PhoQ; a variant is named by its letters at X, in order, P23837 (parent)
chain: MKKLLRLFFPLSLRVRFLLATAAVVLVLSLAYGMVALIGYSVSFDKTTFRLLRGESNLFYTLAKWENNKLHVELPENIDKQSPTMTLIYDENGQLLWAQRDVPWLMKMIQPDWLKSNGFHEIEADVNDTSLLLSGDHSIQQQLQEVREDDDDAEMTHSVAVNVYPATSRMPKLTIVVVDTIPVELKSSYMVWSWFIYVLSANLLLVIPLLWVAAWWSLRPIEALAKEVRELEEHNRELLNPATTRELTSLVRNLNRLLKSERERYDKYRTTLTDLTHSLKTPLXXLQXXLRSLRSEKMSVSDAEPVMLEQISRISQQIGYYLHRASMRGGTLLSRELHPVAPLLDNLTSALNKVYQRKGVNISLDISPEISFVGEQNDFVEVMGNVLDNACKYCLEFVEISARQTDEHLYIVVEDDGPGIPLSKREVIFDRGQRVDTLRPGQGVGLAVAREITEQYEGKIVAGESMLGGARMEVIFGRQHSAPKDE

Variants of: B1
Assay: enrichment ratio after two sorts for PhoP signalling (ratio (wild type AVST 3.29)); higher = more functional
Conditions: with PhoP (E. coli)
With TYWP the enrichment ratio was ≤ 0.25.
THFN showed an enrichment ratio of 1.03.
QRVQ was tested, and the enrichment ratio was ≤ 0.25.
In the case of KIVN, the enrichment ratio is reported as ≤ 0.25.
In the case of DCWG, the enrichment ratio is reported as ≤ 0.25.
With HMSQ the enrichment ratio was ≤ 0.25.
With DEAC the enrichment ratio was ≤ 0.25.
For FCGI, the enrichment ratio was ≤ 0.25.
In the case of WRGG, the enrichment ratio is reported as ≤ 0.25.
In the case of KPQR, the enrichment ratio is reported as ≤ 0.25.
In the case of ARHT, the enrichment ratio is reported as ≤ 0.25.
In the case of MQKF, the enrichment ratio is reported as ≤ 0.25.
For GPFF, the enrichment ratio was ≤ 0.25.
With PIVV the enrichment ratio was ≤ 0.25.
With YFGV the enrichment ratio was ≤ 0.25.
VCAG was tested, and the enrichment ratio was ≤ 0.25.
For HPKQ, the enrichment ratio was ≤ 0.25.
For KTPF, the enrichment ratio was ≤ 0.25.
FYQQ was tested, and the enrichment ratio was ≤ 0.25.
With QCIR the enrichment ratio was ≤ 0.25.
PVVC was tested, and the enrichment ratio was ≤ 0.25.
With PEAM the enrichment ratio was ≤ 0.25.
NLPS was tested, and the enrichment ratio was ≤ 0.25.
Work on MMAI yielded an enrichment ratio of 8.34.
In the case of VFLA, the enrichment ratio is reported as ≤ 0.25.
For LPLG, the enrichment ratio was ≤ 0.25.
KTLI was tested, and the enrichment ratio was ≤ 0.25.
RIHI was tested, and the enrichment ratio was ≤ 0.25.
With NQVG the enrichment ratio was ≤ 0.25.
With MFVF the enrichment ratio was ≤ 0.25.
With MTKQ the enrichment ratio was ≤ 0.25.
LISW was tested, and the enrichment ratio was ≤ 0.25.
With DKND the enrichment ratio was ≤ 0.25.
LTKD was tested, and the enrichment ratio was ≤ 0.25.
In the case of RSHG, the enrichment ratio is reported as ≤ 0.25.
For RVQE, the enrichment ratio was ≤ 0.25.
For QPMV, the enrichment ratio was ≤ 0.25.
In the case of PVIS, the enrichment ratio is reported as ≤ 0.25.
With EKSC the enrichment ratio was ≤ 0.25.
With VYLH the enrichment ratio was ≤ 0.25.
With TVTC the enrichment ratio was 14.5.
VIRF was tested, and the enrichment ratio was ≤ 0.25.
SLMF was tested, and the enrichment ratio was 2.69.
For SFGQ, the enrichment ratio was ≤ 0.25.
For DVWC, the enrichment ratio was ≤ 0.25.
For SVSR, the enrichment ratio was 6.38.
For PWKF, the enrichment ratio was ≤ 0.25.
In the case of MDFF, the enrichment ratio is reported as ≤ 0.25.
For VRHA, the enrichment ratio was ≤ 0.25.
CTLH was tested, and the enrichment ratio was ≤ 0.25.
In the case of HMNR, the enrichment ratio is reported as ≤ 0.25.
For RLKE, the enrichment ratio was ≤ 0.25.
With EIYL the enrichment ratio was ≤ 0.25.
For GIGH, the enrichment ratio was ≤ 0.25.
HFMD was tested, and the enrichment ratio was ≤ 0.25.
PRRD was tested, and the enrichment ratio was ≤ 0.25.
NREQ was tested, and the enrichment ratio was ≤ 0.25.
LSDT was tested, and the enrichment ratio was ≤ 0.25.
WPWR was tested, and the enrichment ratio was ≤ 0.25.
ISQV was tested, and the enrichment ratio was ≤ 0.25.
For LPWN, the enrichment ratio was ≤ 0.25.
For GPPS, the enrichment ratio was ≤ 0.25.
For VKRP, the enrichment ratio was ≤ 0.25.
With AKEQ the enrichment ratio was ≤ 0.25.
VCYM was tested, and the enrichment ratio was ≤ 0.25.
With PVGV the enrichment ratio was ≤ 0.25.
With QSQR the enrichment ratio was ≤ 0.25.
IKCA was tested, and the enrichment ratio was ≤ 0.25.
With MHMY the enrichment ratio was ≤ 0.25.
TCLV was tested, and the enrichment ratio was 9.44.
For GLSD, the enrichment ratio was ≤ 0.25.
Work on MCAA yielded an enrichment ratio of 1.62.
With EFIT the enrichment ratio was ≤ 0.25.
In the case of VPKS, the enrichment ratio is reported as ≤ 0.25.
PIQN was tested, and the enrichment ratio was ≤ 0.25.
With IEIL the enrichment ratio was ≤ 0.25.
For QARC, the enrichment ratio was ≤ 0.25.
For AYAD, the enrichment ratio was ≤ 0.25.
For NSGI, the enrichment ratio was ≤ 0.25.
For ERQE, the enrichment ratio was ≤ 0.25.
FLQM was tested, and the enrichment ratio was 2.26.
For KNCF, the enrichment ratio was ≤ 0.25.
With FEQF the enrichment ratio was ≤ 0.25.
SKAC was tested, and the enrichment ratio was 3.45.
For FEVQ, the enrichment ratio was 6.04.
With RNWI the enrichment ratio was ≤ 0.25.
LVDP was tested, and the enrichment ratio was ≤ 0.25.
In the case of MQGP, the enrichment ratio is reported as ≤ 0.25.
LLKA was tested, and the enrichment ratio was ≤ 0.25.
In the case of VKMI, the enrichment ratio is reported as ≤ 0.25.
In the case of YAST, the enrichment ratio is reported as ≤ 0.25.
For TERN, the enrichment ratio was ≤ 0.25.
In the case of KYLI, the enrichment ratio is reported as ≤ 0.25.
In the case of QLCF, the enrichment ratio is reported as ≤ 0.25.
In the case of PMMG, the enrichment ratio is reported as ≤ 0.25.
In the case of AQKR, the enrichment ratio is reported as ≤ 0.25.
With LQNL the enrichment ratio was ≤ 0.25.
For LCCY, the enrichment ratio was ≤ 0.25.
In the case of VWTY, the enrichment ratio is reported as ≤ 0.25.
ANIE was tested, and the enrichment ratio was ≤ 0.25.
LPFF was tested, and the enrichment ratio was ≤ 0.25.
In the case of PNPI, the enrichment ratio is reported as ≤ 0.25.
In the case of QDIC, the enrichment ratio is reported as ≤ 0.25.
In the case of AYNM, the enrichment ratio is reported as ≤ 0.25.
MLVA was tested, and the enrichment ratio was ≤ 0.25.
In the case of FGNP, the enrichment ratio is reported as ≤ 0.25.
For AHDY, the enrichment ratio was ≤ 0.25.
In the case of VEHC, the enrichment ratio is reported as ≤ 0.25.
With YHSQ the enrichment ratio was ≤ 0.25.
In the case of MTCC, the enrichment ratio is reported as ≤ 0.25.
PSYG was tested, and the enrichment ratio was ≤ 0.25.
TVGH was tested, and the enrichment ratio was 4.06.
For TTND, the enrichment ratio was 4.14.
In the case of KYMD, the enrichment ratio is reported as ≤ 0.25.
APCT was tested, and the enrichment ratio was ≤ 0.25.
For NYQD, the enrichment ratio was ≤ 0.25.
LSGR was tested, and the enrichment ratio was ≤ 0.25.
In the case of WMLR, the enrichment ratio is reported as ≤ 0.25.
NLWV was tested, and the enrichment ratio was ≤ 0.25.
In the case of YILW, the enrichment ratio is reported as ≤ 0.25.
For KSIY, the enrichment ratio was ≤ 0.25.
With RVVS the enrichment ratio was ≤ 0.25.
In the case of WVPF, the enrichment ratio is reported as ≤ 0.25.
With FNVL the enrichment ratio was 0.562.
In the case of GTGD, the enrichment ratio is reported as ≤ 0.25.
For YEID, the enrichment ratio was ≤ 0.25.
With DAWR the enrichment ratio was ≤ 0.25.
ILLA was tested, and the enrichment ratio was ≤ 0.25.
With SRTG the enrichment ratio was ≤ 0.25.
In the case of QMQG, the enrichment ratio is reported as ≤ 0.25.
For DLVS, the enrichment ratio was ≤ 0.25.
In the case of FTDT, the enrichment ratio is reported as ≤ 0.25.
In the case of QGQP, the enrichment ratio is reported as ≤ 0.25.
With FTDF the enrichment ratio was ≤ 0.25.
In the case of LQCT, the enrichment ratio is reported as ≤ 0.25.
YAPH was tested, and the enrichment ratio was ≤ 0.25.
For NRVP, the enrichment ratio was ≤ 0.25.
With VQTF the enrichment ratio was ≤ 0.25.
With GFQE the enrichment ratio was ≤ 0.25.
With RVNY the enrichment ratio was ≤ 0.25.
PPII was tested, and the enrichment ratio was ≤ 0.25.
ATDY was tested, and the enrichment ratio was ≤ 0.25.
For GYSV, the enrichment ratio was ≤ 0.25.
For PYTS, the enrichment ratio was ≤ 0.25.
With KYNC the enrichment ratio was ≤ 0.25.
SSFG was tested, and the enrichment ratio was ≤ 0.25.
In the case of WPSV, the enrichment ratio is reported as ≤ 0.25.
With VARF the enrichment ratio was ≤ 0.25.
With TGWF the enrichment ratio was 0.819.
With AHLD the enrichment ratio was ≤ 0.25.
Work on SEMN yielded an enrichment ratio of 4.75.
With ILEP the enrichment ratio was ≤ 0.25.
With YDCM the enrichment ratio was ≤ 0.25.
